Test results published in the supplement of paper PMC10126150.
Values marked as one replicate rest on one cluster of the flow cell; about a third of the high ones do not repeat.

Tested on: ATP
Assay: switch fluorescence ratio, 500 uM ATP over buffer (Cy3 cluster intensity, sum of 5 cycles each) (fold (ratio)); higher = stronger signal-on switching upon ATP binding; sequences stand for … in TCGTCGGCAGCGTCAGATGTGTATAAGAGACAGTTTTTTTTTTTTTTTTTTTTTTTTT…TC
Conditions: aptamer strand: ATP DNA aptamer (quencher-CACCTGGGGGAGTATTGCGGAGGAAGG + anchor), 100 nM annealed; ATP concentration: 500 uM; one replicate
How it was run: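 Clusters carrying Cy3-labelled switching strands on a modified Illumina MiSeq flow-cell were annealed to 100 nM quencher-labelled ATP aptamer and imaged in selection buffer. They were imaged again after 15 min with 500 uM ATP at 22 °C, over five buffer/ATP cycles with NaOH stripping and re-annealing in between. For each cluster, the fluorescence ratio is the summed Cy3 intensity of the target cycles divided by that of the buffer cycles, averaged per switch-domain sequence. Clusters outside 100-1000 RFU were left out.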
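Also: ATP exposure 15 min at 22 °C before imaging.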

Sequence	switch fluorescence ratio
TTCAGTGACC	1.05
GATTTATCG	0.963
ACAGATCTTT	0.999
ACACGAGTT	0.983
CCTGATGGGC	1.09
AATGTAGCGC	0.974
GAGACTCTGT	0.998
ATTTAAAGTC	0.99
AGTTTAGTAG	0.966
TCTAATCGTG	0.968
GTTATTTATG	0.963
ATTCCGGGGT	1.06
GATGTAGTCA	0.973
TAATCTTCCG	1.52
ATCCGGTGAC	1.86
AGGGGCGAAC	1.01
GGTTGCGATG	0.973
GCGACCGTTT	1.15
TTAGTATGAG	1.05
ACGGGTAGGA	1
CCAACACACG	1.38
GCTACTTGTA	1.03
ATAGGAGAG	1
TCATGGGACG	0.969
AGGCAAAAGT	1.04
AGCTGTTCGC	1.04

Sequence	switch fluorescence ratio
AGAAGGCCGA	0.972
GAGAGAGTAT	0.96
AGTAGGACGA	0.983
AGTCGGGATT	0.991
GGATGGAG	0.977
CTTTTCAGTG	0.948
GATTAACCCT	1.08
AGAGTTTGCA	0.983
GAAGTAGGAT	0.96
GCTCCCCTTT	1.46
CCCGGATAGT	1.07
CTTCTATATT	0.981
CGTTGTGGTG	0.958
ATGCGGGAA	1.03
TATATCCCGA	1.07
TTTCTTTGCT	0.991
GATATTAGCT	0.988
AAGAAGAAGC	0.916
CCTATTAATA	1
ATACTCGACA	1.31
GCGGTTTGCG	1.05
AGTGGCTGCG	1.02
GATGTAGCAG	1.01
GTTTTCAATA	0.945
ATGTAAGAGT	1.09
AATGCTTTAA	0.983

Sequence	switch fluorescence ratio
GAATTAAGCA	1.03
TTACTGGTGA	1.09
GATCAACTCC	1.04
TAAATCAGAT	1
ACCAGTCCCG	1.08
CGTTGGTCTG	0.998
GTCGGAACCG	0.938
TGCAGCTTGA	1.13
CAGAAGTATG	1.02
ATGCCGACGC	1.18
AGTGAAATTG	1.01
AGACCCGACT	1.08
TGGAGGGTGC	1.07
TTCAGTGCAA	1.35
GGGGTTCCGA	1.02
CGGGAAGCC	1.03
AAAGGTAAAT	1.03
CGAGCTTTTC	1.11
CTTGTCTTCT	1
CATTATGGCT	0.994
CAATGTACTG	1.02
TATTGTCACC	0.989
CGCTCTGGTA	1.01
CTGTATTCTT	1.02
AAAAGCAGCA	1.04
AGTCATCGTG	1.09

Sequence	switch fluorescence ratio
AGAAGAAGCA	0.966
CATAAATCTC	1.03
CATTGAAAAC	1.06
TCGCGTGCAG	0.977
AATAAAGCGA	0.991
GCGGGCGCTG	0.997
TATTCGGGAA	0.987
ACCTAAAGTG	1.05
ATTAATGGCA	0.988
GGGGAGCCT	0.999
AGGGGATTA	1.03
ACGGCCGTGT	1.02
GGATACTAAG	1.03
TTTAGTATAT	0.994
GGGTAGGGCT	1.03
GAGAACGATA	1.07
GAATGCGACC	1.51
CGGATGAAGC	1.02
GGGGAGGCAA	1.05
TTGTTAGTGT	1.06
TAGCAAAGAG	1.07
GAGGGTATGA	0.99
GTAGAAGAAA	0.968
ATATATTAGG	1.02
AATCACGGGA	0.954
ACGGGAAAGG	1.08

Sequence	switch fluorescence ratio
CGTCTTGTC	0.975
CAGCCGTCGG	1.03
TGAGGATGTG	0.996
CCGGAACGTA	1.07
TCGGGTATAG	1.01
TCTGAATCAC	1.08
AAGGTGATA	1.06
GGTTGAAATT	1.01
TAATTCCAA	0.984
AGGTCGATCA	0.971
AGAAAGCTTG	0.961
ATCCGTTCGG	1.04
TCGATAATGT	1.04
CGGTTCACAT	1.02
CTGCTAAAAT	0.987
AATGACTC	1.04
GTAACTGGTG	1.12
TTTGCGGAC	1.13
GGGTTCTTGC	0.967
TCAGTTCAGA	1.01
TGTCATTAGT	0.989
AGAGACGACA	1.07
CCTAGGCATG	1.26
ATTTAAAATT	0.968
TATGACGGTG	0.95
TTATGCACTC	1.1

Sequence	switch fluorescence ratio
GTAGCTCGTC	0.954
TAATGATCGA	0.963
GGTGTCGTTG	0.976
TATGGCTTGG	1
CTTGAGGCCT	1.02
AGAAGTGCT	1
ACAGATGATA	1.01
CGAGATTCAC	1.01
AGGATGGGT	0.982
TGTATGTGTG	0.916
TGCGCTAGCC	1.02
GACCTGAGG	1.04
CGAAAGGAAA	0.992
AGAATGCTAT	1.04
TAGTGGTGG	1.03
TGAACAATAT	1.03
AAGTATGTGA	0.998
TCGGTGGAAT	0.998
TGATTTTGCG	1.04
CACAGAATCT	1.07
TCTCTTGCTT	1.2
GGAGTGAAGT	0.968
TGCTTCAACC	0.94
GTGGTAAGTG	0.93
ATTGCGGCAT	0.971
GACCTAGAAG	1.02

Sequence	switch fluorescence ratio
TGACTTCCGG	0.992
ATTTCAAGGA	0.995
AGGGCGCTGG	0.969
GTTGGTGTGC	1
TCACACATTT	1.01
TAAGCGGATT	1
CTCACTATCT	1
TTCAAATTCA	1.15
AACGACCCGC	1.24
CTCGTTAAGG	1.01
TGACTATTGC	1.1
TCCAGGATCG	1.02
TTGGACACAC	1.03
TTCATCGTT	1.01
CTCGAGGACG	1.06
GCTTGGGCGT	0.976
CGGTTTTAT	0.988
AATGGTATG	0.99
AATATGGTGC	1.01
GTGATTCGCG	1.01
TGGGCCACGC	0.976
ACTACTTTGA	1.05
AGTTAGGT	0.944
TGTGGTAGAG	0.947
CGCCATGAGC	1.07
CCTATGTACA	1.01

Sequence	switch fluorescence ratio
AGCCCCGGTC	0.958
GACTGTCAAT	0.974
AGCTTATG	0.977
TGGGATCATA	1.08
AGAATGGGGC	0.993
TCTACTCGCA	1.42
CGTATAAAGC	0.966
TCTAATCATG	0.958
TCATACGTGC	1.25
GGTCCCACCC	1.03
TCGGTTCAAT	0.986
AGGGCTAAGT	0.944
TAAAATCGTG	1.01
AAGCATTGTG	0.992
ACACTCCGCT	3.13
TAGTAGTTCA	0.925
AGGTTTGACC	0.966
CGTCTTAGTA	1.03
AACCGAATTC	1.08
